The supplement of paper PMC10369915
The other results are listed elsewhere or left out. No stated cut-off is given here; in the data, active = 3.2 or more and inactive = the rest. Most of these values are background signal.

B1: DYRK1B_Y271_Q275R_YF (peptide)
chain: LGQRIYQFIRS
B2: DYSF_Y1684_G1679E (peptide)
chain: ELPQTYCVSGP
B3: DYNC2H1_Y2230_M2227V (peptide)
chain: KPVDTYYDSTR
B4: DYSF_Y1858_H1857R (peptide)
chain: KTDVRYRSLGG
B5: DTX3L_Y385_K386Q (peptide)
chain: VDSAHYQLLET
B6: DYNC2H1_Y346 (peptide)
chain: HEKFLYFLPAS
B7: ECEL1_Y400_R404C (peptide)
chain: RVLHNYLVWCV
B8: DPPA2_Y127_R131Q (peptide)
chain: LHRHAYPEQQQ
B9: DPYSL2_Y479_R481C (peptide)
chain: FPDFVYKCIKA
B10: ECHS1_Y137_A132T (peptide)
chain: TAVNGYAFGGG
B11: DSC1_Y846_C848F_YF (peptide)
chain: KHCEDYVFSFN
B12: DYNC2H1_Y346_H341Y (peptide)
chain: YEKFLYFLPAS
B13: DRC7_Y516 (peptide)
chain: LRVHSYKSMQP
B14: DSG2_Y775_R773K (peptide)
chain: EFLKNYFTDKA
B15: DSC1_Y846_C848F (peptide)
chain: KHCEDYVFSYN
B16: DYNC2H1_Y2231_M2227V (peptide)
chain: PVDTYYDSTRG
B17: DYNC1H1_Y3051 (peptide)
chain: SHEELYKWFTS
B18: DSP_Y1512_Y1512C (peptide)
chain: LQRVQCDLQKA
B19: DUOX2_Y70_YF (peptide)
chain: FADGVYQALEE
B20: DYRK1B_Y273_Q275R_YF (peptide)
chain: QRIFQYIRSRF
B21: DYNC2H1_Y2231_YF (peptide)
chain: PMDTFYDSTRG
B22: DYNC2H1_Y346_H341Y_YF (peptide)
chain: FEKFLYFLPAS
B23: DRC7_Y516_P521H (peptide)
chain: LRVHSYKSMQH
B24: DYRK1B_Y271_YF (peptide)
chain: LGQRIYQFIQS
B25: DSP_Y1542_R1537C (peptide)
chain: CLRIDYERVSQ
B26: DSC1_Y846_YF (peptide)
chain: KHCEDYVCSFN
B27: ECHS1_Y35 (peptide)
chain: GANFEYIIAEK
B28: DPYSL2_Y479 (peptide)
chain: FPDFVYKRIKA
B29: ECHS1_Y137 (peptide)
chain: AAVNGYAFGGG
B30: DYNC2H1_Y2231_M2227V_YF (peptide)
chain: PVDTFYDSTRG
B31: DYNC1H1_Y3379_R3384Q_YF (peptide)
chain: NPSFNYEIVNQ
B32: ECD_Y448 (peptide)
chain: EKEQNYDLTEV
B33: ECD_Y448_E452Q (peptide)
chain: EKEQNYDLTQV
B34: ECEL1_Y400 (peptide)
chain: RVLHNYLVWRV
B35: E2F3_Y349 (peptide)
chain: GPIEVYLCPEE
B36: DUS3L_Y610_YF (peptide)
chain: FLGRDYLETLM
B37: DUS3L_Y610_D609N_YF (peptide)
chain: FLGRNYLETLM

Key:
Assay in all cases: enrichment score (SH2-bound / input frequency) (ratio); bacterial display of known human phosphotyrosine sites (pTyr-Var adds point mutants) read by sequencing; higher = stronger binding; tyrosines were phosphorylated by kinases first
Conditions in all cases: peptide library: pTyr-Var
SHP2 C-SH2 domain E139D = target: SHP2 C-SH2 domain E139D
[1] = target: SHP2 C-SH2 domain wild-type
SHP2 N-SH2 domain L43F = target: SHP2 N-SH2 domain L43F
SHP2 N-SH2 domain T42A = target: SHP2 N-SH2 domain T42A
SHP2 N-SH2 domain T52S = target: SHP2 N-SH2 domain T52S
[2] = target: SHP2 N-SH2 domain wild-type
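Further: displayed peptides selected on beads carrying the immobilized SH2 domain, with library peptides lacking any tyrosine serving as negative controls.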

Binder | enrichment score (SHP2 C-SH2 domain E139D) | enrichment score [1] | enrichment score (SHP2 N-SH2 domain L43F) | enrichment score (SHP2 N-SH2 domain T42A) | enrichment score (SHP2 N-SH2 domain T52S) | enrichment score [2]
B1 | inactive: 1.39 | inactive: 1.2 | inactive: 1.36 | inactive: 1.16 | inactive: 1.32 | inactive: 1.41
B2 | inactive: 0.88 | inactive: 0.676 | inactive: 0.706 | inactive: 0.602 | inactive: 0.569 | inactive: 0.825
B3 | inactive: 0.579 | inactive: 0.671 | inactive: 0.581 | inactive: 0.482 | inactive: 0.67 | inactive: 0.75
B4 | inactive: 0.326 | inactive: 0.653 | inactive: 0.437 | inactive: 0.591 | inactive: 0.575 | inactive: 0.562
B5 | inactive: 0.804 | inactive: 0.697 | inactive: 0.683 | inactive: 0.665 | inactive: 0.642 | inactive: 0.91
B6 | inactive: 1.21 | inactive: 1.65 | inactive: 1.51 | inactive: 2.51 | inactive: 1.58 | inactive: 3
B7 | inactive: 2.66 | inactive: 3.08 | active: 3.75 | inactive: 2.8 | inactive: 2.53 | active: 3.37
B8 | inactive: 2.37 | inactive: 2.01 | inactive: 1.81 | inactive: 1.71 | inactive: 2.15 | inactive: 2.25
B9 | inactive: 0.838 | inactive: 0.933 | inactive: 0.871 | inactive: 0.673 | inactive: 0.788 | inactive: 1.02
B10 | inactive: 0.819 | inactive: 0.661 | inactive: 0.647 | inactive: 0.771 | inactive: 1.04 | inactive: 0.801
B11 | inactive: 1.2 | inactive: 1.11 | inactive: 0.868 | inactive: 1.02 | inactive: 1.23 | inactive: 1.43
B12 | inactive: 1.39 | inactive: 1.37 | inactive: 1.29 | inactive: 1.5 | inactive: 1.24 | inactive: 1.14
B13 | inactive: 1.17 | inactive: 0.845 | inactive: 1.23 | inactive: 0.992 | inactive: 1.05 | inactive: 0.95
B14 | inactive: 1.2 | inactive: 0.762 | inactive: 1.09 | inactive: 0.802 | inactive: 0.89 | inactive: 1.38
B15 | inactive: 1.08 | inactive: 1.13 | inactive: 0.755 | inactive: 0.944 | inactive: 0.886 | inactive: 1.25
B16 | inactive: 0.524 | inactive: 0.519 | inactive: 0.559 | inactive: 0.651 | inactive: 0.506 | inactive: 0.697
B17 | inactive: 1.23 | inactive: 1.22 | inactive: 1.14 | inactive: 1.09 | inactive: 1.35 | inactive: 1.29
B18 | inactive: 0.723 | inactive: 1.17 | inactive: 0.761 | inactive: 0.711 | inactive: 1.21 | inactive: 1.07
B19 | inactive: 0.727 | inactive: 0.944 | inactive: 0.672 | inactive: 0.61 | inactive: 0.798 | inactive: 0.903

Binder | enrichment score (SHP2 C-SH2 domain E139D) | enrichment score [1] | enrichment score (SHP2 N-SH2 domain L43F) | enrichment score (SHP2 N-SH2 domain T42A) | enrichment score (SHP2 N-SH2 domain T52S) | enrichment score [2]
B20 | inactive: 0.315 | inactive: 0.213 | inactive: 0.197 | inactive: 0.334 | inactive: 0.315 | inactive: 0.168
B21 | inactive: 0.69 | inactive: 0.538 | inactive: 0.816 | inactive: 0.627 | inactive: 0.767 | inactive: 0.73
B22 | inactive: 1.4 | inactive: 1.37 | inactive: 1.2 | inactive: 1.38 | inactive: 1.4 | inactive: 1.41
B23 | inactive: 2.03 | inactive: 1.94 | inactive: 1.91 | inactive: 1.26 | inactive: 1.96 | inactive: 1.43
B24 | inactive: 2.04 | inactive: 1.84 | inactive: 2.11 | inactive: 1.65 | inactive: 1.8 | inactive: 1.86
B25 | inactive: 1.09 | inactive: 1.51 | inactive: 1.11 | inactive: 0.972 | inactive: 1.09 | inactive: 1.71
B26 | inactive: 1.61 | inactive: 1.86 | inactive: 1.82 | inactive: 1.58 | inactive: 1.86 | inactive: 1.61
B27 | inactive: 0.865 | inactive: 0.63 | inactive: 0.425 | inactive: 0.566 | inactive: 0.895 | inactive: 0.63
B28 | inactive: 0.641 | inactive: 0.425 | inactive: 0.505 | inactive: 0.469 | inactive: 0.78 | inactive: 0.564
B29 | inactive: 0.809 | inactive: 0.787 | inactive: 0.665 | inactive: 0.625 | inactive: 0.832 | inactive: 0.763
B30 | inactive: 0.534 | inactive: 0.741 | inactive: 0.91 | inactive: 0.717 | inactive: 0.678 | inactive: 0.737
B31 | inactive: 0.75 | inactive: 0.617 | inactive: 0.812 | inactive: 0.708 | inactive: 0.681 | inactive: 0.612
B32 | inactive: 0.605 | inactive: 0.398 | inactive: 0.507 | inactive: 0.437 | inactive: 0.363 | inactive: 0.328
B33 | inactive: 0.455 | inactive: 0.515 | inactive: 0.531 | inactive: 0.48 | inactive: 0.525 | inactive: 0.576
B34 | inactive: 3 | inactive: 2.54 | inactive: 2.64 | inactive: 2.81 | inactive: 2.82 | inactive: 2.76
B35 | inactive: 0.655 | inactive: 0.677 | inactive: 0.779 | inactive: 0.737 | inactive: 0.565 | inactive: 0.917
B36 | inactive: 1.32 | inactive: 1.03 | inactive: 1.18 | inactive: 1.19 | inactive: 1.08 | inactive: 1.04
B37 | inactive: 1.68 | inactive: 1.55 | inactive: 1.66 | inactive: 1.8 | inactive: 1.66 | inactive: 1.7
